# In the BET-seq Pho4 binding data (Le et al. 2018):
# The other results are listed elsewhere or left out. The energies were worked out here from pooled read counts, against the library average; single values are noisy.
# Biological target: T1, Pho4 (S. cerevisiae) (UniProt P07270)
# T1 sequence: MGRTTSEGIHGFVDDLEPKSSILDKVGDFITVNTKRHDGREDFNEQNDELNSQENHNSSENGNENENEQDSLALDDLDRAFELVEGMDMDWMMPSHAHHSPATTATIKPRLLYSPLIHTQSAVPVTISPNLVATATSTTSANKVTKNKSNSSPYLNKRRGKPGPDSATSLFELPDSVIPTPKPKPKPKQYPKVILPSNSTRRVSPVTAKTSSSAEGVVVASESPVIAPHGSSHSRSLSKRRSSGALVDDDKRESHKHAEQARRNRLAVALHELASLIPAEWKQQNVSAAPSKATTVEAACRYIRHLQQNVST
# Assay: relative binding free energy (BET-seq); higher = weaker binding
# Details: reference: library average
row,Sequence,relative binding free energy
1,GTTAACACGTGTTTTG,0.1 kcal/mol
2,CGTGTCACGTGTGGAA,0.11 kcal/mol
3,GTGCTCACGTGGAAGG,0.41 kcal/mol
4,TTAGTCACGTGCGTAT,-0.04 kcal/mol
5,ATGGACACGTGTAATG,0.11 kcal/mol
6,GGTAGCACGTGGTGCT,-0.18 kcal/mol
7,TACGTCACGTGTAATG,0.09 kcal/mol
8,GTGTTCACGTGTCGAA,0.36 kcal/mol
9,TACTTCACGTGGTGTG,0.19 kcal/mol
10,CGTGGCACGTGGCTGA,-0.15 kcal/mol
11,TGTAGCACGTGGCGGG,-0.16 kcal/mol
12,ATTGTCACGTGCGTTG,-0.05 kcal/mol
13,CATATCACGTGTTAGG,0.14 kcal/mol
14,TTGTTCACGTGGACGT,0.2 kcal/mol
15,GTGTGCACGTGAACAT,0.25 kcal/mol
16,GTCAACACGTGTTTGG,-0.02 kcal/mol
17,GATTACACGTGTCGTG,0.21 kcal/mol
18,TCGGGCACGTGGTCAT,-0.19 kcal/mol
19,GTGGGCACGTGCATAG,-0.23 kcal/mol
20,GCGGGCACGTGGGTGT,-0.25 kcal/mol
21,TACGTCACGTGGAGTG,0.03 kcal/mol
22,TGGGTCACGTGGCAAA,-0.01 kcal/mol
23,TTCAGCACGTGAGATA,0.28 kcal/mol

row,Sequence,relative binding free energy
1,TTAAGCACGTGAGTAA,0.15 kcal/mol
2,GGGTACACGTGAATTG,0.39 kcal/mol
3,GCGGTCACGTGAGGTC,0.27 kcal/mol
4,AATAGCACGTGTGAGT,-0.03 kcal/mol
5,TGAAACACGTGGCGTT,-0.01 kcal/mol
6,ATGCACACGTGGTTTT,0.06 kcal/mol
7,TAGCGCACGTGGTGGT,-0.24 kcal/mol
8,TTAGGCACGTGATATT,-0.02 kcal/mol
9,GGAAGCACGTGCTAGG,-0.16 kcal/mol
10,AATGTCACGTGAACGG,0.18 kcal/mol
11,GGTTTCACGTGGCAGG,0.32 kcal/mol
12,TATAGCACGTGAAAGT,0.18 kcal/mol
13,AATGACACGTGGTTTA,-0.05 kcal/mol
14,CTTGACACGTGGTAGT,-0.03 kcal/mol
15,TTTTACACGTGTAAAT,0.18 kcal/mol
16,GGTGCCACGTGGCTGG,-0.23 kcal/mol
17,GGATGCACGTGTTGAG,-0.1 kcal/mol
18,TGTTACACGTGGTTTA,0.04 kcal/mol
19,TATTTCACGTGGGTCG,0.19 kcal/mol
20,TGACACACGTGGATTT,0.18 kcal/mol
21,TTTGGCACGTGGCGCA,-0.14 kcal/mol
22,ATTTTCACGTGCGGTG,0.32 kcal/mol
23,GTTTGCACGTGCTTGG,0.07 kcal/mol

row,Sequence,relative binding free energy
1,CTTTTCACGTGAGAGG,0.38 kcal/mol
2,AGGTGCACGTGTATAT,0.11 kcal/mol
3,GCTGGCACGTGATGTG,-0.1 kcal/mol
4,GGACTCACGTGTGTGC,0.35 kcal/mol
5,TTTAACACGTGTATTC,0.02 kcal/mol
6,AAGAGCACGTGGTAAG,-0.17 kcal/mol
7,TTCAACACGTGGGGGA,-0.19 kcal/mol
8,CGTTACACGTGGTGGG,-0.01 kcal/mol
9,GATTACACGTGAGGTG,0.47 kcal/mol
10,TGGATCACGTGGGAGT,0.02 kcal/mol
11,TGATACACGTGGAAGG,0.24 kcal/mol
12,CCTTTCACGTGGAGGT,0.24 kcal/mol
13,TAAGTCACGTGTTTGG,0.1 kcal/mol
14,TGGTTCACGTGCTTCT,0.17 kcal/mol
15,CGGAGCACGTGTAGGG,-0.06 kcal/mol
16,GGGATCACGTGATAAG,0.37 kcal/mol
17,TTGGGCACGTGATGCG,-0.01 kcal/mol
18,CGATACACGTGTGAGT,0.22 kcal/mol
19,ACTGTCACGTGTGCTG,0.08 kcal/mol
20,GGGGGCACGTGACGTA,-0.01 kcal/mol
21,AGTAACACGTGGGCGT,-0.19 kcal/mol
22,AATATCACGTGTATTG,-0.05 kcal/mol
23,GTAGTCACGTGTGCTG,0.09 kcal/mol

row,Sequence,relative binding free energy
1,GTTCGCACGTGATGGG,0.12 kcal/mol
2,CATATCACGTGAGGTT,0.17 kcal/mol
3,CGTAGCACGTGTGTTG,-0.05 kcal/mol
4,TTTTGCACGTGACTTT,-0.01 kcal/mol
5,GGTTACACGTGTTGCA,0.15 kcal/mol
6,ATTGACACGTGTTTCG,0.03 kcal/mol
7,GTAGGCACGTGGGGCA,-0.14 kcal/mol
8,GCGGACACGTGGGGAG,-0.02 kcal/mol
9,GATGTCACGTGGGGGC,0.12 kcal/mol
10,TGATGCACGTGCAGGA,-0.05 kcal/mol
11,GAGGTCACGTGTCGTA,0.21 kcal/mol
12,TTTTTCACGTGTAAAA,0.27 kcal/mol
13,TGATGCACGTGAGTTT,0.28 kcal/mol
14,GTCTACACGTGGTGGG,0.15 kcal/mol
15,AGCGTCACGTGAGAGT,0.25 kcal/mol
16,TCCGGCACGTGTAGGG,-0.08 kcal/mol
17,TTGCTCACGTGAGTGA,0.28 kcal/mol
18,TCGTACACGTGTTGGA,0.11 kcal/mol
19,AATTTCACGTGGTTCA,0.31 kcal/mol
20,AGTAGCACGTGGGACG,-0.13 kcal/mol
21,TTTTACACGTGGTGCC,-0.03 kcal/mol
22,TGCTACACGTGGGGAA,0.01 kcal/mol
23,CTTGCCACGTGGGTTA,-0.24 kcal/mol

row,Sequence,relative binding free energy
1,GTTTCCACGTGTCGTT,0.14 kcal/mol
2,TGTTGCACGTGCTCGG,-0.22 kcal/mol
3,AGATACACGTGTAGTG,0.01 kcal/mol
4,TGCCGCACGTGGAGGT,0.03 kcal/mol
5,CAAGGCACGTGAAGGT,0.1 kcal/mol
6,GTGGGCACGTGAAGCG,0.25 kcal/mol
7,TGCCGCACGTGAAGGG,0.12 kcal/mol
8,GCGTTCACGTGAGGGA,0.38 kcal/mol
9,GTGTGCACGTGCTATA,-0.07 kcal/mol
10,TTTGTCACGTGAGCTA,0.22 kcal/mol
11,TGCAGCACGTGATTTT,0.06 kcal/mol
12,TGCGTCACGTGTGGCT,0.18 kcal/mol
13,ACGTGCACGTGTGGCT,-0.11 kcal/mol
14,GTATACACGTGATTTT,0.19 kcal/mol
15,TGGTGCACGTGGCTGC,-0.18 kcal/mol
16,TTAATCACGTGGAGAT,0.14 kcal/mol
17,TATTACACGTGAATGG,0.46 kcal/mol
18,CTGGTCACGTGGGGAC,-0.04 kcal/mol
19,ATAGTCACGTGATCTT,0.15 kcal/mol
20,AGGATCACGTGAAGGA,0.26 kcal/mol
21,ACTTGCACGTGTGTTT,0.04 kcal/mol
22,GTGGTCACGTGGTAAA,-0.11 kcal/mol
23,TTAGGCACGTGCTTTG,-0.19 kcal/mol
